{
  "source": "paper PMC4336329",
  "about": "(PLoS ONE, 2015)",
  "note": "In all, about 310,000 compounds went through this assay and about 2,200 (0.71%) showed an effect of 50% or more. Effects have a minus sign here. The list shows a part of the results.",
  "data": [
    {"molecular_target": "human ether-à-go-go-related gene (hERG) potassium channel (human, UniProt Q12809)", "sequence (Q12809 whole entry, looked up)": "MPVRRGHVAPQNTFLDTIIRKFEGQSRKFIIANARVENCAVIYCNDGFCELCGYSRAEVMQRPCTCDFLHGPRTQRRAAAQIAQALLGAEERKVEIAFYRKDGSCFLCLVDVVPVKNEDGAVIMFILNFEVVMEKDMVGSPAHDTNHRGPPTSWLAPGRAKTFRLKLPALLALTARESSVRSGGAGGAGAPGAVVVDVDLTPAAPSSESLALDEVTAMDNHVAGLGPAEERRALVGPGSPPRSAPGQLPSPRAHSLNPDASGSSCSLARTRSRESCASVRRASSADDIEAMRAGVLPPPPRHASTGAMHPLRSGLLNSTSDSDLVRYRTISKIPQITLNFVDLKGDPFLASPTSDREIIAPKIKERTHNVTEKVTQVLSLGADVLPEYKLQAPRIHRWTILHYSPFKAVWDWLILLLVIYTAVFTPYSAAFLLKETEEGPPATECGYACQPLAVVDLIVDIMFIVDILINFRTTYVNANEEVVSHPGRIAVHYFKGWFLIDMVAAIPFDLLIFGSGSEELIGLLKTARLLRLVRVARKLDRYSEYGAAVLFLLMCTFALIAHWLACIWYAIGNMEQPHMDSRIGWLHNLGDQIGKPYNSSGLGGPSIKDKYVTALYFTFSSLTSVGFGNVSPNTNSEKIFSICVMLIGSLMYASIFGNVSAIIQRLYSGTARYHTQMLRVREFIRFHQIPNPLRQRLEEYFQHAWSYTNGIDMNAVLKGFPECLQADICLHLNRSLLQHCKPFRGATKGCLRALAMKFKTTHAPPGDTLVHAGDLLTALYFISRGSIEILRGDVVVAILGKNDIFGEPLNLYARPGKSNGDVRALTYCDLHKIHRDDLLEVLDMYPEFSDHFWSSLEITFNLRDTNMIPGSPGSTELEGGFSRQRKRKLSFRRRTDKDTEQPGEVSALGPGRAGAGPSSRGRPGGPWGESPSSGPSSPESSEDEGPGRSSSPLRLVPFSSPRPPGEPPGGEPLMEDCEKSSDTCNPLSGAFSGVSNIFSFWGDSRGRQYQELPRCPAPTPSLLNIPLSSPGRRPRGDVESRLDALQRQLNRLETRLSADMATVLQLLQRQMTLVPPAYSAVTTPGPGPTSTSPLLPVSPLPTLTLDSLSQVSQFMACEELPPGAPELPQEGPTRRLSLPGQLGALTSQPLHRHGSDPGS", "experiment": "primary screen, population patch clamp on CHO cells stably expressing hERG", "units": {"hERG current change (%, negative = inhibition) at 1uM": "%"}, "values": [
      {"smiles": "COc1cccc(N2CCN(S(=O)(=O)c3cn(C)cn3)CC2)c1", "hERG current change (%, negative = inhibition) at 1uM": 18.7},
      {"smiles": "COCC(=O)Nc1c(C(=O)N2CCCC2)oc2ccccc12", "hERG current change (%, negative = inhibition) at 1uM": 8.9},
      {"smiles": "Clc1ccc(-c2noc(CSc3nnc(Cc4cccs4)n3-c3ccccc3)n2)cc1", "hERG current change (%, negative = inhibition) at 1uM": 14.7},
      {"smiles": "Cc1ccc(S(=O)(=O)NC(Cc2ccccc2)C(=O)O)cc1C", "note": "(centres unmarked)", "hERG current change (%, negative = inhibition) at 1uM": 15.1},
      {"smiles": "CCOC(=O)c1c(S(=O)(=O)N(C)Cc2ccccc2)c(C)n(C)c1C", "hERG current change (%, negative = inhibition) at 1uM": 9.71},
      {"smiles": "CN(C)CCCN(C(=O)c1ccc(S(=O)(=O)N2CCOCC2)cc1)c1nc2ccc(F)cc2s1.Cl", "hERG current change (%, negative = inhibition) at 1uM": -24.3},
      {"smiles": "CCc1ccc(C(=O)c2cc3ccc(O)cc3oc2=O)cc1", "hERG current change (%, negative = inhibition) at 1uM": 10.2},
      {"smiles": "CCOC(=O)c1cc2sc(C)cc2n1CC(=O)NCCc1ccccc1", "hERG current change (%, negative = inhibition) at 1uM": 14.1},
      {"smiles": "C/C(=N\\N=C1\\NC(=O)CC(C(=O)O)S1)c1ccc(F)cc1", "note": "(centres unmarked)", "hERG current change (%, negative = inhibition) at 1uM": 5.88},
      {"smiles": "O=C(O)CCCCCn1c(SCC(=O)Nc2ccc(F)cc2)nc2ccsc2c1=O", "hERG current change (%, negative = inhibition) at 1uM": -5.56},
      {"smiles": "O=C(COC(=O)c1ncc(Cl)c(Cl)c1Cl)c1ccc(Cl)s1", "hERG current change (%, negative = inhibition) at 1uM": 11},
      {"smiles": "CCCCCCCCCCOC(=O)Cn1c(COc2cccc(OC)c2)[n+](C)c2ccccc21.[Cl-]", "hERG current change (%, negative = inhibition) at 1uM": -37.3},
      {"smiles": "COC(=O)c1ccc(NC(=S)N2CCN(Cc3ccc(Cl)cc3)CC2)cc1", "hERG current change (%, negative = inhibition) at 1uM": 19},
      {"smiles": "CC(C)NC(=O)CSCc1ccccc1Cl", "hERG current change (%, negative = inhibition) at 1uM": -4.23},
      {"smiles": "COCCCNC(=O)c1cc(Nc2ccc(OC)cc2OC)nc2ccccc12", "hERG current change (%, negative = inhibition) at 1uM": 9.04},
      {"smiles": "O=C(/C=C/c1ccc(Cl)cc1Cl)N1CCN(c2ccc([N+](=O)[O-])c(N3CCOCC3)c2)CC1", "hERG current change (%, negative = inhibition) at 1uM": 6.87},
      {"smiles": "CC(C)CNC(=O)C(=O)N/N=C/c1cccs1", "hERG current change (%, negative = inhibition) at 1uM": 13.4},
      {"smiles": "COc1ccc(CCNC(=O)C(=O)NCC2OCCN2S(=O)(=O)c2ccc(OC)cc2)cc1", "note": "(centres unmarked)", "hERG current change (%, negative = inhibition) at 1uM": -8.98},
      {"smiles": "Cc1cc2c(c(=O)n1CCc1ccccc1)C(C(C)C)C(C#N)=C(N)O2", "note": "(centres unmarked)", "hERG current change (%, negative = inhibition) at 1uM": 7.63},
      {"smiles": "O=C(c1ccccc1)N1CN2CN(C(=O)c3ccccc3)CC([N+](=O)[O-])(C2)C1", "hERG current change (%, negative = inhibition) at 1uM": 18.8},
      {"smiles": "Cc1sc(NC(=O)Cn2nc(C(F)(F)F)cc2C)c(C(=O)OC(C)C)c1C", "hERG current change (%, negative = inhibition) at 1uM": 10.6},
      {"smiles": "O=C(NCCn1cccn1)C1CCC(=O)N(CCc2cccc(F)c2)C1", "note": "(centres unmarked)", "hERG current change (%, negative = inhibition) at 1uM": 4.19},
      {"smiles": "CCC(CC)C(=O)Nc1ccc(C)cc1O", "hERG current change (%, negative = inhibition) at 1uM": 18},
      {"smiles": "O=c1c2ccccc2cnn1-c1ccc2ccccc2c1", "hERG current change (%, negative = inhibition) at 1uM": 7.5},
      {"smiles": "O=C(CCN1C(=O)S/C(=C\\c2ccccc2)C1=O)N1CCCCC1", "hERG current change (%, negative = inhibition) at 1uM": 6.47},
      {"smiles": "COc1ccc(CNC(=O)CN(C(=O)c2snc(C(N)=O)c2N)c2cccc(F)c2)cc1", "hERG current change (%, negative = inhibition) at 1uM": 4.82},
      {"smiles": "COc1cc(/C=N\\NC(=O)c2cccnc2)ccc1OC(=O)c1ccccc1Cl", "hERG current change (%, negative = inhibition) at 1uM": -1.22},
      {"smiles": "CCOc1ccc(NC(=O)CCN2C(=O)CSc3ccccc32)cc1", "hERG current change (%, negative = inhibition) at 1uM": -5.03},
      {"smiles": "Cc1cccn2c(=O)c(/C=C(\\C#N)S(=O)(=O)c3ccccc3)c(N3CCCCC3)nc12", "hERG current change (%, negative = inhibition) at 1uM": 12.9},
      {"smiles": "O=C(OC1CCOC1=O)c1cccc(S(=O)(=O)Nc2ccc(F)cc2)c1", "note": "(centres unmarked)", "hERG current change (%, negative = inhibition) at 1uM": 11.7},
      {"smiles": "CCN(CC)S(=O)(=O)c1ccccc1/C=N\\O", "hERG current change (%, negative = inhibition) at 1uM": 2},
      {"smiles": "CCC(C)[C@H](NC(=O)N1CCC(Cc2ccccc2)CC1)C(=O)O", "note": "(some centres unmarked)", "hERG current change (%, negative = inhibition) at 1uM": 15.1},
      {"smiles": "CC(NC(=O)C1CCN(c2nnc(N3CCCC3=O)s2)CC1)c1ccccc1", "note": "(centres unmarked)", "hERG current change (%, negative = inhibition) at 1uM": 11.8},
      {"smiles": "Cn1c(=O)c2c(nc(NCc3ccc4c(c3)OCO4)n2C)n(C)c1=O", "hERG current change (%, negative = inhibition) at 1uM": -6.61},
      {"smiles": "Cc1ccc(CNc2ccc(N3CCOCC3)cc2)s1", "hERG current change (%, negative = inhibition) at 1uM": 2.51},
      {"smiles": "CC(C)C(=O)C1=Cc2cc([N+](=O)[O-])ccc2OC1N1CCOCC1", "note": "(centres unmarked)", "hERG current change (%, negative = inhibition) at 1uM": 9.39},
      {"smiles": "Cn1c(SCc2ccc(C#N)cc2)nnc1-c1ccncc1", "hERG current change (%, negative = inhibition) at 1uM": 6.61},
      {"smiles": "CCC1CCCCN1C(=O)c1ccc(OC)c(OC2CCN(C(C)C)CC2)c1", "note": "(centres unmarked)", "hERG current change (%, negative = inhibition) at 1uM": 6.4},
      {"smiles": "COc1ccccc1NC(=O)C1CCCN(S(=O)(=O)c2cnc[nH]2)C1", "note": "(centres unmarked)", "hERG current change (%, negative = inhibition) at 1uM": 16.6},
      {"smiles": "O=C(c1cccc(F)c1)N1CCN(C(=O)c2cc3nc(-c4ccco4)cc(C(F)(F)F)n3n2)CC1", "hERG current change (%, negative = inhibition) at 1uM": -7.98},
      {"smiles": "CSc1ccc(CNc2ccccn2)cc1", "hERG current change (%, negative = inhibition) at 1uM": -11.2},
      {"smiles": "CN(CCC#N)C(=O)COC(=O)[C@H](Cc1ccccc1)N1C(=O)c2ccccc2C1=O", "hERG current change (%, negative = inhibition) at 1uM": 9.69},
      {"smiles": "C=CCOc1ccccc1CN1CCC(Oc2ccc(C(=O)N3CCCC3)cc2)CC1", "hERG current change (%, negative = inhibition) at 1uM": -19.5},
      {"smiles": "CCCCn1c2nc3ccccc3nc2c2c(=O)n(CCC)cnc21", "hERG current change (%, negative = inhibition) at 1uM": 10.8},
      {"smiles": "CCOC(=O)N1CCN(C(=O)c2ccc(NC(=O)CC)cc2)CC1", "hERG current change (%, negative = inhibition) at 1uM": 7.4},
      {"smiles": "CCOC(=O)C1(CC2CCCCO2)CCN(S(=O)(=O)c2ccc(C)s2)CC1", "note": "(centres unmarked)", "hERG current change (%, negative = inhibition) at 1uM": -12.1},
      {"smiles": "CN(C(=O)CSc1nnc(Nc2ccccc2)s1)C1CCS(=O)(=O)C1", "note": "(centres unmarked)", "hERG current change (%, negative = inhibition) at 1uM": -5.47},
      {"smiles": "O=C(N/N=C/c1cccnc1)c1ccccc1OCc1ccc(Br)cc1", "hERG current change (%, negative = inhibition) at 1uM": -7.4},
      {"smiles": "O=C(/C=C/c1ccccc1)NC(NC(=S)Nc1ccc(Cl)cc1Cl)C(Cl)(Cl)Cl", "note": "(centres unmarked)", "hERG current change (%, negative = inhibition) at 1uM": 14.5},
      {"smiles": "COc1cccc(-c2csc(NC(C)=O)n2)c1", "hERG current change (%, negative = inhibition) at 1uM": -1.37},
      {"smiles": "CC1CN(c2ccccc2)C(=O)CS1", "note": "(centres unmarked)", "hERG current change (%, negative = inhibition) at 1uM": 5.94},
      {"smiles": "CCOC(=O)c1cccc(NC(=O)CSc2nnc(-c3cccnc3)n2CC)c1", "hERG current change (%, negative = inhibition) at 1uM": -8.56},
      {"smiles": "Cc1occc1C(=O)N1CCCC(CO)(Cc2ccc(F)cc2F)C1", "note": "(centres unmarked)", "hERG current change (%, negative = inhibition) at 1uM": -0.708},
      {"smiles": "CN=C1SC(CC(=O)NCCc2ccc(OC)c(OC)c2)C(=O)N1C", "note": "(centres unmarked)", "hERG current change (%, negative = inhibition) at 1uM": 9.06},
      {"smiles": "ONc1cccnc1-n1nc(C(F)(F)F)cc1C(F)(F)F", "hERG current change (%, negative = inhibition) at 1uM": 11.4},
      {"smiles": "CCN1CCN(C(=O)CN2C(=O)COc3ccc(C)cc32)CC1", "hERG current change (%, negative = inhibition) at 1uM": 10.6}
    ]}
  ]
}
